Experimental findings from article PMC11472338 (Journal of Medicinal Chemistry, 2024) are described below.

Series [1] addresses PDE6C (Homo sapiens, UniProt P51160). The series can be described thus: biochemical. The settings on record: read-out: PDE6C % inhibition at 500 nM.
The target in series [2] is PDE3A (Homo sapiens, UniProt Q14432). The series can be described thus: biochemical. The note with it: read-out: PDE3A % inhibition at 500 nM.
The target in series [3] is T1, PDE4D3 (Homo sapiens, UniProt Q08499). The series can be described thus: biochemical. The settings on record: read-out: PDE4D3 % inhibition at 500 nM.
Series [4] deals with PDE5A (Homo sapiens, UniProt O76074). The series can be described thus: biochemical. The note with it: read-out: PDE5A % inhibition at 500 nM.
In series [5] the target is T2, PDE10A (Homo sapiens, UniProt Q9Y233). The series can be described thus: biochemical. The note with it: read-out: PDE10A % inhibition at 500 nM.
Series [6] deals with T2, PDE10A. The settings on record: 0.5 µM.
Series [7] deals with human PDE11A4 (Homo sapiens, UniProt Q9HCR9). The series can be described thus: biochemical. The note with it: read-out: PDE11A4 % inhib@500 nM.
Series [8] concerns MDCK-MDR1 cells. As to the method:
Samples were taken from the donor and receiver chambers at 120 min. Each determination was performed in duplicate.

Series [9] is described as follows: in vitro. The settings on record: mouse, microsomes.
Series [10] in a line: in vitro. The note with it: human, microsomes.
The target in series [11] is PDE2A (Homo sapiens, UniProt O00408). The series can be described thus: biochemical. The settings on record: read-out: PDE2A % inhibition@1 μM.
In series [12] the target is PDE9A (Homo sapiens, UniProt O76083). The series can be described thus: biochemical. The settings on record: read-out: PDE9A % inhibition@1 μM.
For series [13] the following is noted: mouse, in vivo, po, 100 mg/kg.
Series [14] concerns the target PDE7B (Homo sapiens, UniProt Q9NP56). The series can be described thus: biochemical. The settings on record: read-out: PDE7B % inhibition@1 μM.
Series [15] addresses PDE8A (Homo sapiens, UniProt O60658). The series can be described thus: biochemical. The settings on record: read-out: PDE8A % inhibition@1 μM.
Series [16] addresses PDE1A (Homo sapiens, UniProt P54750). The series can be described thus: biochemical. The note with it: read-out: PDE1A % inhibition@1 μM.
Series [17] concerns the target T1, PDE4D3. The note with it: 0.5 µM.

SMILES strings stand for the structures.

In the case of `CCn1nccc1-c1cc(-c2nnco2)c2c(C)nn(-c3ccccc3F)c2n1` [8b], the inhibition at 0.5 µM stood at 85% in series [1]; 15% in series [2]; 68% in series [3]; 45% in series [4]; 50% in [5].
`CCn1nccc1-c1cc(-c2nnco2)c2c(C(F)F)nn(-c3ccc(F)cc3)c2n1` [8c]: the inhibition at 0.5 µM in [1] is 33%; in series [2], 5%; in series [3], 13%; in series [4], 28%; in [5], above 50%. The “PDE10A % inhibition at 500 nM” value in series [6] is listed as 65%.
Regarding `Cc1nn(-c2ccccc2)c2nc(-c3ccnn3C)cc(-c3nnc[nH]3)c12` [10b], the inhibition at 0.5 µM is 85% in [1]; 12% in [2]; 12% in series [3]; 63% in [4]; 32% in series [5].
`Cc1noc(-c2cc(-c3ccnn3C)nc3c2c(C(F)F)nn3-c2ccccc2)n1` [6c]: the inhibition at 0.5 µM in series [7] was found to be 69%.
Regarding `Cc1nn(-c2ccc(F)cc2)c2nc(-c3ccnn3C)cc(-c3nncs3)c12` [4g], the inhibition at 0.5 µM in series [1] was determined as 51%; in [2], 0%; in series [3], 24%; in [4], 33%; in [5], 28%. Moreover, in series [8], the p-glycoprotein-mediated efflux entry is recorded as “Neither compound showed evidence of p–glycoprotein-mediated efflux”. Also, the half-life in [9] is above 60 min; in [10] it was 57 min. Further, the inhibition at 1 µM came to 40% in series [11]; 30% in [12]; 0% in series [14]; 19% in series [15]; 19% in series [16]. Besides, the pharmacokinetic profile entry in [13] is “the profile was poor”.
On to `CCn1nccc1-c1cc(-c2nncs2)c2c(C)nn(-c3ccc(F)cc3)c2n1` [4h], for which the inhibition at 0.5 µM in series [1] came to 47%; in series [2], 0%; in [3], 25%; in series [4], 34%; in series [5], 51%. The p-glycoprotein-mediated efflux entry in [8] was “Neither compound showed evidence of p–glycoprotein-mediated efflux”. Also, the results for the half-life in series [9] and in series [10] were above 60 min and 48 min, respectively. For the same compound, the inhibition at 1 µM came out at 40% in series [11]; 0% in series [12]; 0% in [14]; 19% in [15]; 20% in series [16].
Take `CCn1nccc1-c1cc(C#N)c2c(C(F)F)nn(-c3ccccc3)c2n1` [compound 11]: the “PDE4D3 % inhibition at 500 nM” value in [17] stood at 97%. For the same compound, in series [3], the inhibition at 0.5 µM is above 95%.
On the same counts, the results for `Cn1nccc1-c1cc(CC#N)c2c(C(F)F)nn(-c3ccccc3)c2n1` [compound 12] are 95% and above 95%.
Take `CCn1nccc1-c1cc(-c2nnc(C)o2)c2cnn(-c3ccccc3F)c2n1` [5e]: the inhibition at 0.5 µM in series [7] was found to be 55%.
On the same count and under the same terms, then `Cc1nnc(-c2cc(-c3ccnn3C)nc3c2c(C)nn3-c2ccccc2Cl)o1` [5g], with 64%.
As to `Cn1nccc1-c1cc(-c2nnc[nH]2)c2c(C(F)F)nn(-c3ccccc3)c2n1` [10d], the inhibition at 0.5 µM was 90% in [1]; 15% in [2]; 25% in series [3]; 63% in series [4]; 43% in [5].
Consider `Cn1nccc1-c1cc(-c2nnco2)c2c(C(F)F)nn(-c3ccccc3)c2n1` [8a], for which the inhibition at 0.5 µM in series [1] was determined as 77%; in series [2] it was 14%; in series [3], 73%; in series [4], 44%; in [5], 34%.
Turning to `CCn1nccc1-c1cc(-c2nc(C)no2)c2c(C)nn(-c3ccccc3F)c2n1` [6a], the inhibition at 0.5 µM in [7] was found to be 69%.
For the compound `Cc1nn(-c2ccc(F)cc2)c2nc(-c3ccnn3C)cc(-c3nnc[nH]3)c12` [10c], the inhibition at 0.5 µM in series [1] was 83%; in [2] it was 10%; in [3], 10%; in series [4] it was 55%; in [5] it was 41%.
Take `CCc1nnc(-c2cc(-c3ccnn3CC)nc3c2c(C)nn3-c2ccccc2)o1` [5c]: the inhibition at 0.5 µM in series [7] turned out to be 62%.
Turning to `CCn1nccc1-c1cc(-c2nnco2)c2c(C)nn(-c3ccc(F)cc3F)c2n1` [8g], the inhibition at 0.5 µM was 56% in [1]; 4% in series [2]; 84% in series [3]; 38% in [4]; above 50% in series [5]. Besides, the “PDE10A % inhibition at 500 nM” value in [6] is 58%.
For `CCn1nccc1-c1cc(-c2nnc[nH]2)c2c(C)nn(-c3ccccc3F)c2n1` [10a], the inhibition at 0.5 µM came to 80% in [1]; 20% in [2]; 17% in series [3]; 65% in series [4]; 35% in [5].
For the compound `CCc1nnc(-c2cc(-c3ccnn3CC)nc3c2c(C)nn3-c2ccccc2)s1` [4b], the inhibition at 0.5 µM in series [7] was 53%.
Turning to `CCn1nccc1-c1cc(-c2nnco2)c2c(C)nn(-c3ccc(F)cc3)c2n1` [8f], the inhibition at 0.5 µM in [1] was 63%; in series [2] it was 11%; in series [3], 61%; in series [4] it was 38%; in series [5] it was 31%.

Usually half-life stands for the time needed for the level to fall by half in the phase considered. Low values mean fast loss, high ones slow loss.
